Experimental findings from PubChem BioAssay (NCI) are described below.

The test has as its system NCI-H322M lung. Put plainly: inhibition of tumour cell growth, NCI panel, 48 h.

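Cultured in 96-well plates, cells were exposed to test compound for 48 hours across five concentrations. GI50: concentration for 50% inhibition of growth. TGI marks complete inhibition of growth.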 Where only a bound is given, the exact number is not on record here.

Take `NCCCc1c(-c2ccccc2)nc(N)[nH]c1=O`: the TGI was greater than 100 µM. Take `NC(=O)c1cc(Cl)ccc1NC(=O)c1ccccc1-c1ccccc1`: the GI50 was 4.63 µM and the TGI is greater than 100 µM. `O=C(N/N=C\c1ccc([N+](=O)[O-])cc1)c1ccccc1Nc1ccccc1C(=O)N/N=C/c1ccc([N+](=O)[O-])cc1`: the TGI is greater than 100 µM. As to `Cc1ccc([N+](=O)[O-])cc1S(=O)(=O)Nc1ccc(C2=NNC(c3cccs3)C2)cc1` (configuration not stated), the TGI is greater than 100 µM.

As for `CC1=C2C(=O)C(C)(C)C=C2C(=O)[C@](C)(O)C12CC2`, the TGI is greater than 1 µM. Still for that read-out and setting: the value for `O=C1CC(c2ccc[nH]2)=NN1c1ccccc1` was greater than 100 µM; that for `ClC1(c2ccccc2)c2ccc(Br)cc2-c2cc(Br)ccc21` was 32.7 µM; that for `COc1ccc(C(=O)C(Br)C(Br)C(=O)O)cc1` (configuration not stated) was greater than 100 µM. In turn, `NC12CC3CC4C1CC1CC2C(C3)C4(N)C1` yielded a TGI greater than 100 µM. The same measure, in the same setting: the value for `CC(=O)O[C@H]1CCC2[C@@H]3CCC4Nc5c(cnn5-c5ccccc5)C[C@]4(C)C3CC[C@@]21C` (some centres not stated) was 61.1 µM; that for `COc1cc(C(=O)Nc2c3ccccc3nc3ccccc23)cc(OC)c1OC` was greater than 100 µM. Take `CCOC(=O)c1c(C)[nH]c(/C=C2\N=C(c3ccc[nH]3)C=C2OC)c1C`: the GI50 is 0.164 µM and the TGI is 4.53 µM. The molecule `C[C@@H](NC1CCC[C@@H]1O)c1ccccc1` (some centres not stated) displayed a TGI greater than 100 µM. Still for that read-out and setting: as for `N#CC(C(=O)CCC(=O)Nc1ccc(Cl)cc1)c1ccccc1Cl` (configuration not stated), the figure is greater than 100 µM. Take `O=C1/C(=C/c2ccccc2)CN(CCC(=O)N2C/C(=C\c3ccccc3)C(=O)/C(=C/c3ccccc3)C2)C/C1=C\c1ccccc1`: the GI50 was greater than 88.7 µM and the TGI is greater than 100 µM. For `CSc1nc(O)c(/C=C2\C=Nc3ccccc32)[nH]1`, the TGI was greater than 100 µM. As for `O=C(O[C@H]1CN[C@H](C#Cc2cc3ncnc(Nc4ccc(OCc5cccc(F)c5)c(Cl)c4)c3s2)C1)N1CCOCC1`, the GI50 was 2.88 µM and the TGI is greater than 21.3 µM. `CCOC(=O)C(C)(C)/C=C\C(Cl)=C(Cl)Cl` registered a TGI greater than 100 µM. Regarding `N=C1C(c2nc3ccccc3s2)=C(O)CN1c1ccc(Cl)cc1Cl`, the GI50 was 17 µM and the TGI is 70.8 µM. With `CC1Cc2c(N)nc(N3CCOCC3)nc2NC1=O` (configuration not stated), the TGI was greater than 100 µM. `COc1cc2c3c(n(Cc4ccccc4)c(=O)c2cc1OC)-c1ccccc1C3=O` yielded a TGI greater than 100 µM.

Consider `CC(Oc1ccc(OCC2CCCCC2)cc1)C(=O)O` (configuration not stated), for which the TGI was greater than 100 µM.

Take `CSc1nncc2[nH]cnc12`: the TGI is greater than 100 µM. Still for that read-out and setting: the value for `CSc1ccc(/C=C2\N=C(c3ccccc3)N(c3nc4c(Cl)cc(Cl)cc4s3)C2=O)cc1` was 99.3 µM. Consider `CNC(=O)c1cncc(/C=C/c2c(C)cccc2C)c1`, for which the GI50 is greater than 25 µM and the TGI is greater than 25 µM. On to `CC1(C)C[C@H](O)[C@H](O)[C@]23C(=O)O[C@H](O)[C@H]2C(C=O)=CC[C@@H]13`, for which the TGI is greater than 100 µM.

Consider `O=C1C=C(N2CC2)C(=O)C=C1N1CC1`, for which the GI50 was 0.397 µM and the TGI is 4.28 µM.

`Cc1cccc2c1O/C(=C\c1ncc([N+](=O)[O-])n1C)C2=O`: the GI50 is 1.69 µM and the TGI came to 5.89 µM. `CC1=C(C(=O)NCC(C)O)CC(C(=O)NCC(C)O)=C(C)N1` (configuration not stated): the TGI is greater than 100 µM. For `N#C/C(=C/C=C/c1ccccc1)S(=O)c1ccccc1` (configuration not stated), the GI50 is 1.54 µM and the TGI was 3.78 µM. `Nc1nc(N)c2nc(-c3ccco3)cnc2n1` returned a TGI greater than 100 µM. The same measure, in the same setting: the value for `Cc1ccc(Nc2nc(=O)[nH]c(=O)[nH]2)cc1N=[N+]=[N-]` was greater than 100 µM.

Consider `O=c1c(-c2ccccc2Cl)coc2cc(F)ccc12`, for which the TGI was greater than 100 µM. The molecule `COc1ccc(C[C@H]2COC(=O)[C@@H]2Cc2ccc(O)cc2)cc1OC` registered a TGI greater than 100 µM. `O=C(CN1CCOCC1)CC(O)(C(F)(F)F)C(F)(F)F` gave a TGI greater than 100 µM.

The molecule `O=c1[nH]c2ccc(CC(=S)N3CCN(c4ccccc4)CC3)cc2o1` came in with a TGI greater than 100 µM. On the same count and under the same terms, the value for `CCOC(=O)CNC1C(NC(C)=O)C(OC)OC2COC(c3ccccc3)OC21` (configuration not stated) was greater than 100 µM. On to `O=S(=O)(O)c1ccc2c(N=Nc3ccccc3Cl)c(O)ccc2c1`, for which the TGI was greater than 100 µM.

Molecule `O=C(NCCCCNCCCNC(=O)c1cc(-c2ccccc2)nc2ccccc12)c1cc(-c2ccccc2)nc2ccccc12` displayed a TGI of 3.44 µM. On the same count and under the same terms, the value for `C/C(=N\O)c1cccc(Nc2nc3ccccc3c3occc23)c1` was 26.8 µM; that for `C[Si](C)(C)/C=C\CCCN1C(=O)CCC1=O` was greater than 100 µM; that for `CC(C(=O)c1ccccc1)C1(O)C(=O)Nc2ccccc21` (configuration not stated) was greater than 100 µM. `COc1cc(C2SCC(=O)N2c2ccc(Cl)cc2)cc(I)c1O` (configuration not stated) registered a TGI greater than 100 µM.

Regarding `NNC(=O)CCC(=O)Nc1ccc(Cl)cc1Cl`, the TGI is greater than 100 µM. Molecule `Cc1ccc(/C=N/Nc2nncc3ccccc23)s1` showed a TGI greater than 100 µM.

Take `COC1(OC)C2(Cl)C(Cl)=C(Cl)C1(Cl)C1COCC12` (configuration not stated): the TGI was greater than 100 µM. Consider `O=C(Nc1ccc(Cl)cc1)c1cc2cc(F)ccc2cc1O`, for which the GI50 is 2.05 µM and the TGI came to 9.9 µM. Turning to `COc1cc(/C=C/C(=O)N[C@@H]2C(=O)N3[C@@H]2SC(C)(C)[C@@H]3C(=O)O)cc(OC)c1OC`, the TGI was greater than 100 µM. Regarding `NCC1OC(n2cnc3c(=O)[nH]c(N)nc32)C(O)C1O` (configuration not stated), the TGI was greater than 100 µM. Turning to `CN(C)c1ccc2cc(-c3cc4c(oc3=O)-c3ccccc3OC4O)c(=O)oc2c1` (configuration not stated), the GI50 is 11.4 µM and the TGI is greater than 25 µM. The molecule `CC1=C(/C=C/C2=CC(=C\C(=O)O)/CC(C3=C(C)CCCC3(C)C)C2)C(C)(C)CCC1` (configuration not stated) yielded a TGI of 25.3 µM. `COc1cc2cc(C(=O)N3CC(CCl)c4c3cc(N(C)C)c3ccccc43)[nH]c2c(OC)c1OC` (configuration not stated) yielded a TGI greater than 100 µM.

Molecule `CCOC(=O)C1(C(=O)OCC)CC(=O)[C@@]2(C1)OCC[C@H]1OC(=O)C[C@H]12` displayed a TGI greater than 100 µM.

In the case of `CCN(CC)CCSc1nc2c(c(=N)n1-c1ccccc1)c(=S)n(-c1ccccc1)c(=S)n2-c1ccccc1`, the TGI amounted to 23 µM. Same read-out and setting: the value for `CN(C)CCNC(=O)c1ccc(NCCCN(C)CCCNc2ccc(C(=O)NCCN(C)C)c3[nH]c4ccc([N+](=O)[O-])cc4c(=O)c23)c2c(=O)c3cc([N+](=O)[O-])ccc3[nH]c12` was 1.16 µM. As for `COc1ccc(Cl)cc1NC(=O)c1c(NC(=O)C(F)(F)C(F)(F)F)sc2c1CCCCC2`, the GI50 was 1.58 µM and the TGI is 6.73 µM. Molecule `S=P(c1ccccc1)(c1ccccc1)C1(C2(P(=S)(c3ccccc3)c3ccccc3)CC2)CC1` displayed a TGI greater than 100 µM. Same read-out and setting: as for `COC1OC(CBr)C(OC(c2ccccc2)(c2ccccc2)c2ccccc2)C(OC(c2ccccc2)(c2ccccc2)c2ccccc2)C1OC(c1ccccc1)(c1ccccc1)c1ccccc1` (configuration not stated), the figure is greater than 100 µM. `COc1cc(C)[nH]c(=O)c1CN1CCc2c(Cl)cc([C@H](OC)C3COC3)c(Cl)c2C1=O`: the GI50 was greater than 100 µM and the TGI was greater than 100 µM. `O=C(c1cc2c(C(F)(F)F)onc2c2ccccc12)C(F)(F)F` registered a TGI greater than 100 µM.

Consider `Cc1ccc2c(N/N=C\c3ccco3)cc(C)nc2n1`, for which the GI50 is 3.29 µM and the TGI came out at 13 µM. With `CN(C)Cc1cccc(CN(C)C)[c]1[Sn]([Br])([c]1ccccc1)[c]1ccccc1`, the GI50 was 13 µM and the TGI came out at 38.3 µM.
